From paper PMC4336329 (PLoS ONE, 2015)
Out of some 310,000 compounds screened, about 14,000 (4.5%) showed an effect of 50% or more. The effect is printed as a negative number. The list shows a part of the results.

Each molecule was assayed against human ether-à-go-go-related gene (hERG) potassium channel (human, UniProt Q12809) (assay: primary screen, population patch clamp on CHO cells stably expressing hERG).
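Further: peak tail current of the secondary pulse compared with the same well before compound.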

Chain of human ether-à-go-go-related gene (hERG) potassium channel (Q12809 whole entry, looked up): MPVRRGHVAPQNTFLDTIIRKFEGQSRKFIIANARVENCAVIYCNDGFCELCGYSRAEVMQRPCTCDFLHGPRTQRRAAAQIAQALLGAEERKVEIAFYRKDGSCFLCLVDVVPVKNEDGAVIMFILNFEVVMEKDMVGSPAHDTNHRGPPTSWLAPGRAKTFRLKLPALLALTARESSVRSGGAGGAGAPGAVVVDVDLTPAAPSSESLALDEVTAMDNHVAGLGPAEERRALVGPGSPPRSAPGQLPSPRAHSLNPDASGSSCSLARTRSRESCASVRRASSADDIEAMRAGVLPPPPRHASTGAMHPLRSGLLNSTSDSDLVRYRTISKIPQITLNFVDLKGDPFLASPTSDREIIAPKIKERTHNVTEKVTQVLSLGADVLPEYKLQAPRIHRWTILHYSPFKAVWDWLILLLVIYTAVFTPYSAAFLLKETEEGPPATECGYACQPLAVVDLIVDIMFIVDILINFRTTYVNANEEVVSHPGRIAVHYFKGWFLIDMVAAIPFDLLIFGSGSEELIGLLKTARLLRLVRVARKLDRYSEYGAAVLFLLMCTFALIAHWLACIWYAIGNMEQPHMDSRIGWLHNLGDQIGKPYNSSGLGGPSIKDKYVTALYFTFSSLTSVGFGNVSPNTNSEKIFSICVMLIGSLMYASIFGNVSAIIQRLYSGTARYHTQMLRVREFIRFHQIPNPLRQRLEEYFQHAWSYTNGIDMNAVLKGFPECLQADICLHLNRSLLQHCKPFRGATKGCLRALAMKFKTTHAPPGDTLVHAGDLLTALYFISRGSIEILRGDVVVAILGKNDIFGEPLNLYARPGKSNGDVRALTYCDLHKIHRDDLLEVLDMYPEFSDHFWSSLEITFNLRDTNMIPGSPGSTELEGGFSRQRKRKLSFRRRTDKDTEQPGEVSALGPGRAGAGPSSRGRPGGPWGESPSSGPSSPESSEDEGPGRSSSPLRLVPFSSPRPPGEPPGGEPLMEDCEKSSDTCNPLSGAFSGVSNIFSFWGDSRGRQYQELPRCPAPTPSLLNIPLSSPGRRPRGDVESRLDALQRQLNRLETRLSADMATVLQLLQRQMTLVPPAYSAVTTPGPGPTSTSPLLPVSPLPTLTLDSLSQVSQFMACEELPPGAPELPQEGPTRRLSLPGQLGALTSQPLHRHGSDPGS

Structure (SMILES)	hERG current change (%, negative = inhibition) at 10uM
Cn1c(COc2ccc(Cl)cc2)nnc1SCc1ncc(-c2ccccc2)o1	-48.2%
CCOc1ccccc1NC(=O)c1cc(S(=O)(=O)NCc2ccco2)ccc1F	1.68%
Cn1cc(C2CC(c3ccccc3)=NN2C(=O)c2ccccc2)c2ccccc21 (centres unmarked)	-8.16%
CC(=O)Nc1ccc(C(=O)N2CCN(S(=O)(=O)c3ccc4c(c3)OCCCO4)CC2)cc1	5.45%
CCC(C)(C)NC(=O)c1cc([N+](=O)[O-])ccc1N1CCCCC1	-36.9%
COc1ccc(C2=NN(C(=O)COC(=O)c3ccc(NC(=O)CC#N)cc3)C(c3ccco3)C2)cc1 (centres unmarked)	5.24%
COc1ccc(C2c3ccc(O)cc3Oc3ncn(CC(C)C)c(=N)c32)cc1 (centres unmarked)	-69.8%
CCC(=O)Nc1cccc(C2=NOC3(C2)C[C@@H](C(N)=O)N(C(=O)C2(C)CC2)C3)c1 (some centres unmarked)	7.91%
Cc1cc(SCC(=O)N(C)C2CCS(=O)(=O)C2)nc2c(C)cccc12 (centres unmarked)	21.2%
COc1ccc(CC(=O)NCC(C)(C)N2CCOCC2)cc1	23.6%
CN(C)C(=O)CCc1nc2sc3c(c2c(=O)[nH]1)CCCC3	10.1%
Cc1cc(C(=O)Nc2ccc(F)cc2C)cs1	-15.6%
CN(/N=C/c1ccc(O)cc1O)c1nc(-c2ccccc2)cc(-c2ccccc2)n1	11%
Cc1cc(C)nc(N(C#N)S(=O)(=O)c2ccccc2)n1	13.8%
COc1cc(C(C)=O)ccc1OCCCOc1cccc2cccnc12	-0.0533%
Cc1ccc(C(=O)c2coc3ccc(O)c(CN(C)C)c23)cc1.Cl	-54.7%
Cc1cc(C)n(CC(C)Nc2nc3nonc3nc2N2CCCCC2)n1 (centres unmarked)	-11.8%
CCOc1ccc(NC(=O)C2CCN(S(=O)(=O)c3c(C)noc3C)CC2)cc1	-3.71%
COc1cc(-c2nc(C)c(C(C)=O)n2O)ccc1OCC(=O)Nc1ccc(Cl)cc1	-5.19%
CCCS(=O)(=O)N1CCN=C1SCc1ccc(F)cc1	2.23%
CN(Cc1cnn(C)c1)C(=O)C1CCC(=O)N(C2CCCCCC2)C1 (centres unmarked)	7.67%
Cc1nccn1CC(O)COC1CCCCC1 (centres unmarked)	13%
CSc1sc(C(=O)NCC2CC2)cc1S(=O)(=O)C(C)C	2.39%

Structure (SMILES)	hERG current change (%, negative = inhibition) at 10uM
CN(CC(=O)NCc1ccco1)CC(=O)Nc1c(Cl)cccc1Cl	-12.7%
CCCN1CCN(C(=S)Nc2ccccc2C(F)(F)F)CC1	0.283%
O=C(c1ccccc1F)N1CCN(c2cnn(-c3cccc(Cl)c3)c(=O)c2Cl)CC1	-32.5%
COc1ccccc1NC(=O)Cn1c2ccccc2c2nc3n(c(=O)c21)CCS3	5.31%
CC(C)c1nnc(SCC(=O)N2CCOCC2)n1C	12%
Cc1noc(C)c1COc1ccc(C(=O)N2CCN(S(=O)(=O)c3ccccc3)CC2)cc1	-43%
O=C(N/N=C\c1cccc(Br)c1)c1ccccc1-n1cccc1	8.68%
Cc1oc(C(=O)O)cc1CSCc1cc(C(=O)O)c(C)o1	16%
CCS(=O)(=O)c1ccc(C(=O)Nc2ccccc2OC)c(Cl)c1Cl	8.71%
CS(=O)CSc1nc2c(cc1C#N)CCCC2 (centres unmarked)	-25%
Cn1c(Cn2c(=O)sc3ccccc32)nnc1SCC(=O)Nc1cccc(F)c1	13.8%
Cc1ccc(NC(=O)CSc2nncc3ccccc23)cc1	-11%
COc1cc(NC(=O)C2CCCCC2)c(OC)cc1NC(=O)c1ccccc1	16.6%
CC(C)c1nc(CN2CCCCC2)cc(=O)[nH]1	15.7%
Cc1ccc(NC(=O)c2cccc(S(=O)(=O)N3CCN(c4ccc(F)cc4)CC3)c2)nc1	-14.6%
NNc1nc(-c2ccccc2)nc(-c2ccccc2)c1Br	5.71%
CC(=O)CCCCn1cnc2c1c(=O)n(C)c(=O)n2C	20.7%
O=C(Cc1c(F)cccc1Cl)N1CCOCC1	6.36%
Cc1cccc(N2C(=O)NC(=O)/C(=C/c3cc4c(cc3[N+](=O)[O-])OCO4)C2=O)c1	7.04%
CC(C)(CCO)NC(=S)NC1CC2C=CC1C2 (centres unmarked)	0.0745%
Nc1ccc(C(=O)c2ccc3c(c2)OCCO3)cc1N	2.85%
O=C(CNc1cccc2ccccc12)N/N=C/C(Br)=C/c1ccccc1	4.86%
O=C(CC1C(=O)NCCN1C(=O)Nc1ccc(F)cc1)Nc1ccc(F)cc1 (centres unmarked)	13.9%

Structure (SMILES)	hERG current change (%, negative = inhibition) at 10uM
Cc1ccc(Cn2ccc(=O)c(OCc3c(Cl)cccc3Cl)c2C)cc1	10.1%
CCOC(=O)N/N=C\c1ccccc1OC/C=C/c1ccccc1	16.9%
Cc1ccccc1-c1nnc(SCC(=O)Nc2c(C)n(C)n(-c3ccccc3)c2=O)o1	-16.2%
CCCn1c(=O)c2c(C(F)(F)F)cc(-c3ccco3)nc2n(CCC)c1=O	7%
CC(CN1CCOCC1)OC(=O)c1cccc(Cl)c1.Cl (centres unmarked)	10.4%
O=C(Nc1nnc(-c2ccccc2F)s1)Nc1ccccc1F	23.3%
CC1CCCC(C)N1/N=C/c1ccccc1OC(F)F (centres unmarked)	11.4%
COc1ccc(OCC(=O)N2CCN(C(=O)c3cccs3)CC2)cc1	-43.3%
COCCCN(C(=O)c1cc(C)oc1C)c1c(N)n(CC(C)C)c(=O)[nH]c1=O	7.78%
O=C(NC1CCN(Cc2ccccc2Cl)CC1)c1ccccc1	-65.2%
CCN1CCN(C(=O)CCc2nnc(CCc3ccc(OC)cc3)o2)[C@@H](C)C1=O	7.31%
Cn1c(=O)[nH]c(=O)c2c1nc(NCCN)n2CCOc1ccccc1	26.9%
COc1c(O)ccc(/C=N\NC(=O)c2ccc3c(c2)OCO3)c1[N+](=O)[O-]	12.7%
CSCc1ccc(C(=O)N2CCCC(Nc3ccc4c(c3)OCCO4)C2)o1 (centres unmarked)	-8.6%
O=C(C[n+]1cc[nH]c1)c1ccc(Cl)cc1.[Cl-]	4.63%
CN(C)c1ccccc1C(=O)c1ccccc1N(C)C	-12.9%
COc1ccc(C(=O)NCCCOc2cccc(NC(C)=O)c2)cc1	-11.5%
CNC(=S)N1N=C2c3ccccc3CCC2C1c1ccccc1Cl (centres unmarked)	8.41%
CCc1ccc2oc(C(=O)NCCc3ccc(S(N)(=O)=O)cc3)cc(=O)c2c1	12%
Cc1cc(NC(=O)Cn2c(=O)oc3ccccc32)no1	2.61%
O=C(NC1CCN(Cc2ccccc2)C1)c1cc(COc2ccc(F)cc2F)on1 (centres unmarked)	-64.2%
CN(C)c1ccc(NC(N)=S)cc1	9.61%
CCn1nnnc1-c1ccc(OC)c(S(=O)(=O)N2CCCCC2)c1	-21.6%

Structure (SMILES)	hERG current change (%, negative = inhibition) at 10uM
Cc1cccc(OCC(=O)N=Nc2c(O)[nH]c3ccc([N+](=O)[O-])cc23)c1	-2.59%
CCOc1ccc2ccccc2c1/C=N/NC(=O)CNC(=O)Cc1ccccc1	10.4%
O=C(COc1ccc2ccccc2c1)Nc1nccs1	0.185%
O=C(CSc1nnc(-c2ccccc2)n1-c1ccccc1)c1ccc[nH]1	16.4%
O=C(N/N=C/c1ccc(OC(=O)c2ccc([N+](=O)[O-])cc2)cc1)c1cccnc1	21.6%
C=CCn1c(SCC(=O)c2cc(C)n(C(C)COC)c2C)nc2sc(C)c(C)c2c1=O (centres unmarked)	-15.4%
Cc1ccc2ccc(C(Nc3cccc(C(F)(F)F)c3)c3cccnc3)c(O)c2n1 (centres unmarked)	11.9%
COc1ccc(S(=O)(=O)NC2CC2)cc1C(=O)N1CCOCC1	25.4%
CCOCCCNC(=O)C(NC(=O)c1ccc(=O)[nH]c1)c1ccccc1 (centres unmarked)	1.34%
C/C(=N\NC(=S)NCCc1ccccc1)c1cccc(Br)c1	25.1%
COC(=O)c1sccc1NC(=O)Nc1ccccc1OC	-41.4%
Cc1nc(N2CCC(C)CC2)c2c(C)c(C(=O)Nc3ccc4c(c3)OCCO4)sc2n1	15.2%
Clc1ccc(C[n+]2cc(-c3ccccc3)n3c2CCC3)cc1.[Cl-]	-33.5%
Cc1cc(NC(=O)Nc2cccc(Cl)c2)n(C(C)(C)C)n1	1.73%
O=C(Nc1ccc(C(=O)O)cc1)/C(=C\c1ccc(F)cc1)NC(=O)c1ccco1	23.7%
CN(C)C(=O)c1ccc(Oc2ccc(C(=O)N(C)C)cc2)cc1	-1.46%
O=C(O)c1ccc([N+](=O)[O-])c2c1C(=O)c1ccccc1C2=O	23.5%
CCOC(=O)C1(CC2CC2)CCN(C(=O)c2cc(C)nc3ccc(CC)cc23)CC1	-32.4%
OCC1(CCOc2ccccc2)CCN(Cc2ccc3cccc(F)c3n2)CC1	-83%
COc1cc(C)c(C)cc1S(=O)(=O)N1CCCCC1c1cccnc1 (centres unmarked)	-3.94%
